Measurements: article PMC9636508
No constants are given. Whether binding was seen depends on the method and setting. In cells and extracts the contact can be indirect. Some entries that bind do so weakly or less than the wild type. Values belong to the binder of their own block, whether it stands above or below them.

By UniProt entry, the sequences of proteins in these tests, tags left out. Where a name states a change or a piece, a line headed by the entry shows the natural chain unless it says otherwise. Chains listed by the source or under a name are the forms on record and can include a tag or linker. Residues count along the entry.
UniProt Q9UNF0: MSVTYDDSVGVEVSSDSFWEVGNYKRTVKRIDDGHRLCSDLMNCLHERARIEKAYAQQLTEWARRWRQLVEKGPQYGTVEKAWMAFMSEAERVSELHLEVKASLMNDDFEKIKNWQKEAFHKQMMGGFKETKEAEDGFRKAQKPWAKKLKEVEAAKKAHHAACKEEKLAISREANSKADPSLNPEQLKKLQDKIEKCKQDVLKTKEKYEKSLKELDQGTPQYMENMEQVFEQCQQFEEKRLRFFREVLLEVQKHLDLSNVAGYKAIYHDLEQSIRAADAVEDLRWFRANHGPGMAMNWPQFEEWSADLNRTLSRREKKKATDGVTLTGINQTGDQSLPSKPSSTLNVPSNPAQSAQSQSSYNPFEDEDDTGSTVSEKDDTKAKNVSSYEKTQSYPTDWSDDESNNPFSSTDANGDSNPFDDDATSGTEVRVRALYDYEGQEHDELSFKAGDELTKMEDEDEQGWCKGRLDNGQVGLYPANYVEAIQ
PACSIN2 D4 mutant (lacks the SH3 domain, amino acids 430-486): residues 1-429 of Q9UNF0
GST-SH3 (GST-fused SH3 domain of PACSIN2): residues 430-486 of Q9UNF0

Tests used:
[1] = biological target: PACSIN2 wild type, overexpressed (human) (UniProt Q9UNF0); experiment: co-IP; K562 cells transfected with expression plasmids, lysed after 24 h in NETN buffer (150 mM NaCl, 0.5 mM EDTA, 50 mM Tris pH 7.5, 0.5% NP-40); streptavidin-coated beads or protein A-agarose with primary antibody; western blot
[2] = biological target: GST-SH3 (GST-fused SH3 domain of PACSIN2) (human) (UniProt Q9UNF0); experiment: pull-down; GST pull-down with the GST-fused SH3 domain of PACSIN2; methods not shown
[3] = biological target: PACSIN2 wild type, overexpressed (human) (UniProt Q9UNF0); experiment: co-IP; immunoprecipitation of PACSIN2 and SH3BP1 with expression of full-length Cobll1 or the N-terminus of Cobll1
[4] = biological target: PACSIN2 D4 mutant (lacks the SH3 domain, amino acids 430-486) (human) (UniProt Q9UNF0); experiment: co-IP; K562 cells transfected with expression plasmids, lysed after 24 h in NETN buffer (150 mM NaCl, 0.5 mM EDTA, 50 mM Tris pH 7.5, 0.5% NP-40); streptavidin-coated beads or protein A-agarose with primary antibody; western blot
[5] = biological target: PACSIN2 (endogenous) (human (endogenous in K562)) (UniProt Q9UNF0); experiment: co-IP; endogenous proteins; K562 cells

binding [1]: no binding
B1: Cobll1 D1 (deletion of amino acids 14-368) (protein, UniProt Q53SF7)
chain: MDGRTPRPQDAPASKIPPHQSDENSRVTALQPVDGVPPDSASEANSPEELSSPAGISSDYSLEEIDEKEELSEVPKVEAENISPKSQDIPFVSTDIINTLKNDPDSALGNGSGEFSQNSMEEKQETKSTDGQEPHSVVYDTSNGKKVVDSIRNLKSLGPNQENVVQNEIIVYPENTEDNMKNGVKKTEINVEGVAKNNNIDMEVERPSNSEAHETDTAISYKENHLAASSVPDQKLNQPSAEKTKDAAIQTTPSCNSFDGKHQDHNLSDSKVEECVQTSNNNISTQHSCLSSQDSVNTSREFRSQGTLIIHSEDPLTVKDPICAHGNDDLLPPVDRIDKNSTASYLKNYPLYRQDYNPKPKPSNEITREYIPKIGMTTYKIVPPKSLEISKDWQSETIEYKDDQDMHALGKKHTHENVKETAIQTEDSAISESPEEPLPNLKPKPNLRTEHQVPSSVSSPDDAMVSPLKPAPKMTRDTGTAPFAPNLEEINNILESKFKSRASNAQAKPSSFFLQMQKRVSGHYVTSAAAKSVHAAPNPAPKELTNKEAERDMLPSPEQTLSPLSKMPHSVPQPLVEKTDDDVIGQAPAEASPPPIAPKPVTIPASQVSTQNLKTLKTFGAPRPYSSSGPSPFALAVVKRSQSFSKERTESPSASALVQPPANTEEGKTHSVNKFVDIPQLGVSDKENNSAHNEQNSQIPTPTDGPSFTVMRQSSLTFQSSDPEQMRQSLLTAIRSGEAAAKLKRVTIPSNTISVNGRSRLSHSMSPDAQDGH

binding [2]: binds | binding [3]: binds | binding [4]: no binding | binding [1]: binds
B2: SH3BP1 wild type, overexpressed (protein, UniProt Q9Y3L3 1-701)
chain: MMKRQLHRMRQLAQTGSLGRTPETAEFLGEDLLQVEQRLEPAKRAAHNIHKRLQACLQGQSGADMDKRVKKLPLMALSTTMAESFKELDPDSSMGKALEMSCAIQNQLARILAEFEMTLERDVLQPLSRLSEEELPAILKHKKSLQKLVSDWNTLKSRLSQATKNSGSSQGLGGSPGSHSHTTMANKVETLKEEEEELKRKVEQCRDEYLADLYHFVTKEDSYANYFIRLLEIQADYHRRSLSSLDTALAELRENHGQADHSPSMTATHFPRVYGVSLATHLQELGREIALPIEACVMMLLSEGMKEEGLFRLAAGASVLKRLKQTMASDPHSLEEFCSDPHAVAGALKSYLRELPEPLMTFDLYDDWMRAASLKEPGARLQALQEVCSRLPPENLSNLRYLMKFLARLAEEQEVNKMTPSNIAIVLGPNLLWPPEKEGDQAQLDAASVSSIQVVGVVEALIQSADTLFPGDINFNVSGLFSAVTLQDTVSDRLASEELPSTAVPTPATTPAPAPAPAPAPAPALASAATKERTESEVPPRPASPKVTRSPPETAAPVEDMARRTKRPAPARPTMPPPQVSGSRSSPPAPPLPPGSGSPGTPQALPRRLVGSSLRAPTVPPPLPPTPPQPARRQSRRSPASPSPASPGPASPSPVSLSNPAQVDLGAATAEGGAPEAISGVPTPPAIPPQPRPRSLASETN

binding [5]: binds
B3: SH3BP1 (endogenous) (protein, UniProt Q9Y3L3 1-701)
chain: B2 chain
